The source of these data is ChEMBL document CHEMBL4888484, “Replenishing the malaria drug discovery pipeline: Screening and hit evaluation of the MMV Hit Generation Library 1 (HGL1) against asexual blood stage Plasmodium falciparum ,using a nano luciferase reporter read-out” (2022).

Out of some 150,000 compounds screened, about 540 (0.36%) showed an effect of 50% or more. Some of the results follow.

The assay concerns Plasmodium falciparum. Nature of the assay: Primary screen in NF54 nanoGlo assay, in single point, at 2uM, 72h; a lower Z score goes with more inhibition. The conditions noted are these: timepoint 72 hour. Type of assay: functional, Erythrocyte.
Regarding `Cc1c(-c2n[nH]c3c2CN(C(=O)c2csnn2)CC3)cccc1C(F)(F)F`, the “% Inhibition” value is -12% and the Z score turned out to be 1.03.

Regarding `CCc1ncc2c(n1)CN(C(=O)c1ccc3c(=O)n(C)cnc3c1)C2`, the “% Inhibition” value is -4% and the Z score worked out at 0.83.

For `O=C(Nc1ccc(S(=O)(=O)NC2CCOCC2)cc1)N1CC(CC2CC2)C1`, the “% Inhibition” value is listed as -6% and the Z score was 0.9.

`CC(C)Cn1c(Cn2cccn2)nc2cc(NC(=O)c3ccc(F)cc3)ccc21`: the “% Inhibition” value is -1% and the Z score was found to be 0.06.

Regarding `Clc1ccc2c(c1)C1OCCCC1C(c1ccccc1)N2` (stereo not drawn), the “% Inhibition” value was -8% and the Z score is recorded as 0.88.

Turning to `Cc1c(CCC(=O)N2CC(CC(F)F)C2)cnn1C`, the “% Inhibition” value came out at 0% and the Z score came to 0.

`CC1=C(C(=O)NCc2cn(C)nc2C)CCC(C)(C)C1`: the “% Inhibition” value is given as -17% and the Z score is 2.05.

In the case of `c1ccc(N2CCc3nc(NCc4cccnc4)ncc32)cc1`, the “% Inhibition” value was -14% and the Z score was 2.54.

Consider `CC/C=C(/CN1CCC(CNC(=O)[C@H]2CCCN(C)C2)CC1)c1ccccc1`, for which the “% Inhibition” value turned out to be 1% and the Z score was -0.1.

For the compound `O=C(Cc1ncc(C(F)(F)F)cc1Cl)c1ccc(Cl)c(Cl)c1`, the “% Inhibition” value turned out to be 39% and the Z score was -5.03.

Take `Cc1cc(OC2CCCC2)n2nccc2n1`: the “% Inhibition” value is -11% and the Z score is 1.46.

`Cc1noc(C2CCN(C(=O)c3cc(C)n(C)c3C)CC2)n1`: the “% Inhibition” value turned out to be 0% and the Z score turned out to be 0.03.

As for `NC(=O)N1CCC[C@H](C(=O)N2CC(OCc3ccccc3)C2)C1`, the “% Inhibition” value was -5% and the Z score is listed as 0.89.

With `CC(C)CNS(=O)(=O)CCCOc1ccc(F)cc1`, the “% Inhibition” value is recorded as 0% and the Z score came out at 0.06.

Consider `COc1ccc(CC(=O)n2nc(-c3ccc(F)cc3)nc2N)cc1`, for which the “% Inhibition” value is recorded as -12% and the Z score is recorded as 1.89.

As to `CNS(=O)(=O)CCn1ccnc1-c1ccccc1Cn1cccn1`, the “% Inhibition” value amounted to 0% and the Z score was -0.05.

Turning to `Cc1ccc(N2CCCC2)c(C(=O)N2CC(C)NC(C)C2)c1` (stereo not drawn), the “% Inhibition” value is -5% and the Z score is 0.83.

Regarding `CCCc1cc(-c2cccc(C(=O)N3CCN4CCC[C@H]4C3)c2)nc(C)n1`, the “% Inhibition” value is reported as -5% and the Z score is 0.87.

As to `CCc1ccc(C(=O)N2C[C@@H]3CC[C@H]2CN(Cc2cscn2)C3)s1`, the “% Inhibition” value was 1% and the Z score is -0.1.

As to `Cc1nnc(C(C)N2CCC3(CC2)CC3C(=O)N2CCCCC2)o1` (stereo not drawn), the “% Inhibition” value came to 3% and the Z score is given as -0.39.

In the case of `COCCNc1ncccc1-c1noc([C@@H]2CCCN2Cc2ccncc2)n1`, the “% Inhibition” value amounted to 35% and the Z score is listed as -3.97.

As for `CC(C)[C@@H]1N(C(=O)NCc2ccccc2S(N)(=O)=O)CC12CC=CC2`, the “% Inhibition” value is recorded as -12% and the Z score turned out to be 1.82.

`Cc1nn(C)cc1[C@@H]1CCCN1C(=O)c1cnn(C2CCC2)c1`: the “% Inhibition” value is on record as 6% and the Z score was -0.76.

On to `CC(C)c1ccccc1OC[C@@H](O)CN`, for which the “% Inhibition” value is reported as -8% and the Z score is 1.36.

In the case of `CCN(CCc1ccncc1)S(=O)(=O)c1ccc(N2C(=O)CCS2(=O)=O)cc1C`, the “% Inhibition” value is 32% and the Z score is recorded as -0.69.

Take `CN1C(C(=O)Nc2ccc(C#N)cc2)CC(c2ccco2)NS1(=O)=O` (stereo not drawn): the “% Inhibition” value is -22% and the Z score stood at 1.92.

On to `CC(COC1CCOC1)NCc1cc(F)ccc1Br` (stereo not drawn), for which the “% Inhibition” value was -9% and the Z score is 1.06.

For `COCC1(C(=O)N[C@H]2CN(C)S(=O)(=O)c3ccsc32)CCC1`, the “% Inhibition” value is -6% and the Z score was determined as 0.7.

Take `COC(=O)CCc1csc(-c2cnc3ccccn23)n1`: the “% Inhibition” value is -11% and the Z score came to 1.58.

As for `COc1ccc(C(=O)N2CCN(c3ccc(NC(=O)c4cccs4)cn3)CC2)cc1`, the “% Inhibition” value was -28% and the Z score turned out to be 3.97.

For the compound `O=C1CC[C@@H]2CN(c3ccncc3)CC[C@@H]2N1CCc1ccccn1`, the “% Inhibition” value is 14% and the Z score is -2.29.

With `Cc1n[nH]c2cc(NC(=O)Cc3cccc(O)c3)ccc12`, the “% Inhibition” value was determined as 5% and the Z score is -0.56.

Turning to `O=C(Cc1ccsc1)N1CC[C@H](OCc2ccccc2)C1`, the “% Inhibition” value is -12% and the Z score is listed as 2.08.

With `CCCCc1nc(CN2CCC[C@](C)(C#N)C2)c[nH]1`, the “% Inhibition” value is -14% and the Z score is on record as 1.81.

With `Cc1ccccc1-c1noc(-c2ccc(N3CCN(C)C(=O)[C@@H]3C)nc2)n1`, the “% Inhibition” value is recorded as -20% and the Z score was 2.4.

Take `CC(C)N1CCN(C(=O)C2C3CCCCC32)CC1=O` (stereo not drawn): the “% Inhibition” value is reported as -10% and the Z score turned out to be 0.83.

For `Cc1ccn(CC(=O)NOCc2ccccc2)c(=O)c1C#N`, the “% Inhibition” value is listed as -11% and the Z score was found to be 1.07.

`CCN1C[C@H](Nc2nnnn2-c2ccccc2)[C@@H](OC)C1`: the “% Inhibition” value stood at 5% and the Z score is reported as -0.72.

For `O=C([C@@H]1C=CCN1)N(Cc1ccncc1)Cc1ccc2c(c1)OCO2`, the “% Inhibition” value is recorded as -8% and the Z score was 1.35.

With `CCCN(CC(=O)OC)S(=O)(=O)c1cnn([C@H]2CCOC2)c1`, the “% Inhibition” value is 6% and the Z score is listed as -0.66.

Consider `CCN(CC)C(=O)C1CCCN(C2CCC(=O)N(Cc3ccc(F)c(F)c3)CC2)C1` (stereo not drawn), for which the “% Inhibition” value is on record as 1% and the Z score is -0.12.

Take `CC(C)NS(=O)(=O)NC(C)C1CCN(Cc2ccccc2)C1` (stereo not drawn): the “% Inhibition” value is -8% and the Z score is recorded as 1.

Take `C[C@@H]1CCO[C@@H]1C(=O)NS(=O)(=O)Cc1ccc2c(c1)COC2`: the “% Inhibition” value is given as -1% and the Z score worked out at 0.13.

`C[C@@H](c1ccco1)N(C)C(=O)Cn1ncc(N(C)Cc2ccccc2)cc1=O`: the “% Inhibition” value is -13% and the Z score was found to be 1.95.

As for `O=C1NC2(C(=O)NCC3(c4ccccc4)CC3)CC3CC1C2C3` (stereo not drawn), the “% Inhibition” value is -7% and the Z score came out at 1.44.

`Cc1ccc(Cn2nc(CC(N)=O)nc2[C@@H]2C[C@@H](O)CN2)cc1`: the “% Inhibition” value was -11% and the Z score amounted to 2.09.

Regarding `O=C(Cn1cc(S(=O)(=O)Cc2ccccc2F)c2ccccc21)N1CCCc2ccccc21`, the “% Inhibition” value is -5% and the Z score was 0.75.

Consider `CNc1cc(C)nc(NCc2ccc3[nH]c(C)c(C)c3c2)n1`, for which the “% Inhibition” value is recorded as -8% and the Z score came to 1.47.

As for `CC[C@H]1Cn2c(C(=O)NC3CCCC3)cc3c(Cl)ccc(c32)O1`, the “% Inhibition” value was 33% and the Z score is recorded as -4.82.

For the compound `Cc1cc(F)ccc1Oc1cc(N2CCN(S(=O)(=O)c3ccccc3)[C@@H](C)C2)ncn1`, the “% Inhibition” value was found to be 2% and the Z score is given as -0.27.

With `C[C@@H](Cc1ccoc1)NC(=O)C1CCC1`, the “% Inhibition” value was -2% and the Z score was 0.29.

In the case of `Fc1ccc(N2CCN(c3nn4cnnc4c4ccccc34)CC2)cc1`, the “% Inhibition” value is -10% and the Z score is given as 1.31.

With `CCOC(=O)N1CCN(C(=O)Nc2ccc(NC(=O)N3CCN(C(=O)OCC)CC3)cc2)CC1`, the “% Inhibition” value is reported as -17% and the Z score is on record as 2.27.

`Cn1cc(C[C@H](NC(=O)OC(C)(C)C)C(=O)N2CC=C(c3c[nH]c4ccccc34)CC2)c2ccccc21`: the “% Inhibition” value turned out to be 3% and the Z score is -0.46.
